# Data taken from PubChem BioAssay (NCATS).
# This list was built around the results that the source calls inconclusive (neither active nor inactive); the mix of calls is not that of the screen. Where the call is inconclusive, the potency comes from a doubtful curve fit. Activity calls are given as the source filed them. Calls follow the shape of the dose curve; as a rule, active = well fitted inhibition curve with a large enough effect; inconclusive = small, poorly fitted or top-dose-only effect; inactive = no such curve, though single readings can be large or run the other way.
# Biological target: Retinaldehyde dehydrogenase 3 (Homo sapiens) (UniProt P47895)
# Assay: qHTS for Inhibitors of the Aldehyde Dehydrogenase Family (ALDH1A3) Primary screen (AID 2061315)
# Conditions: ALDH inhibition qHTS; series mostly up to 56 µM
# Potency is read from the fitted curve at half-maximal effect; tags tell the direction and shape of the fitted curve.
row,SMILES,Potency
1,C=C(C(=O)O[C@H]1C/C(C)=C/CC/C(CO)=C/[C@H]2OC(=O)C(=C)[C@H]12)C(O)CO (some centres undefined),inactive
2,CC1(C)CCC[C@@]2(C)[C@H]1[C@H](O)C=C1COC(=O)[C@@]12O,"inconclusive: 15.8 µM [inhibitor, partial curve, poor fit]"
3,O=C(O)c1ccc(-c2noc(-c3ccc(F)cc3)n2)cc1,"inconclusive: 1.12 µM [inhibitor, full curve, poor fit]"
4,O=C1c2ccccc2C(=O)N1c1ccccc1O,inactive
5,COc1cc(C(=O)OCC2=CCC3C(C(=O)O)=COC(O[C@@H]4O[C@H](CO)[C@@H](O)[C@H](O)[C@H]4O)C23)ccc1O (some centres undefined),"inconclusive: 3.98 µM [inhibitor, partial curve]"
6,COc1cc(C(CO)C(OC2OC(CO)C(O)C(O)C2O)c2ccc(O)c(OC)c2)ccc1O (centres undefined),"inconclusive: 8.91 µM [inhibitor, single point]"
7,O=C(NC1CCCc2c1cnn2-c1ccc(F)cc1F)C1CCCCN1 (centres undefined),inactive
8,CC(CCc1ccc(O)cc1)O[C@@H]1O[C@H](CO[C@@H]2OC(CO)[C@H](O)[C@H]2O)[C@@H](O)[C@H](O)[C@H]1O (some centres undefined),"inconclusive: 12.6 µM [inhibitor, partial curve, poor fit]"
9,CC(C)[C@H]1CCC(CO)=C[C@@H]1/C=C(\CO)C(=O)O,inactive
10,N=c1c2c(ncn1-c1ccccc1)Oc1ccc3ccccc3c1C2c1ccc2c(c1)OCO2 (centres undefined),inactive
11,Cc1cc(O)cc2c1O[C@](C)(CCC[C@H](C)CCC[C@H](C)CCCC(C)C)CC2,inactive
12,O=C1c2ccccc2C(=O)N1c1cncc2ccccc12,inactive
13,Cc1cc(NS(=O)(=O)c2ccc(NC(=O)Cc3cccc4ccccc34)cc2)no1,inactive
14,Cc1cc2c(s1)c1cnn(Cc3ccccc3Cl)c(=O)c1n2C,inactive
15,CC(C/C=C/C(C)(C)O)C1CCC(C)(O)C(O)C1 (centres undefined),"inconclusive: 14.1 µM [inhibitor, partial curve]"
16,Cc1ccc(C2Nc3cccc4cccc(c34)N2)cc1,"inconclusive: 3.16 µM [inhibitor, full curve]"
17,COc1ccc(C(=O)OC2C3C=COC(OC4OC(CO)C(O)C(O)C4O)C3C3(CO)OC23)cc1OC (centres undefined),"inconclusive: 11.2 µM [inhibitor, partial curve, poor fit]"
18,COC(=O)c1nc(Nc2cc(F)cc(F)c2)nc(NC2CCCC2)n1,inactive
19,c1ccc(-c2cnn3cc(-c4ccc(OCCN5CCOCC5)cc4)cnc23)cc1,inactive
20,COC(=O)C1=CO[C@@H](O[C@@H]2O[C@H](CO[C@@H]3O[C@H](COC(=O)/C=C/c4ccc(O)cc4)[C@@H](O)[C@H](O)[C@H]3O)[C@@H](O)[C@H](O)[C@H]2O)[C@@H]2C(CO)=CC[C@H]12,"inconclusive: 4.47 µM [inhibitor, partial curve, poor fit]"
21,CN(C)C1CCN(Cc2cc(COCc3ccccc3)c3cccnc3c2O)C1 (centres undefined),"inconclusive: 15.8 µM [inhibitor, single point]"
22,COc1ccc(N2CCN(CCCNC(=O)Cn3c(=O)c4cccn4c4c(C)ccnc43)CC2)cc1,inactive
23,C=CCNc1oc(-c2ccc(Cl)cc2)nc1C#N,inactive
24,CC1(CO)CC(O)[C@]2(C(=O)O)CCC34CC3(C=CC3[C@]5(C)C(CC[C@]34C)C(C)(CO)[C@@H](O)[C@H](O)[C@@H]5O)C2C1 (some centres undefined),"inconclusive: 10 µM [inhibitor, single point]"
25,CC1=CC2C(CC1OC1OC(CO)C(O)C(O)C1O)C(C)CC(=O)C2C(C)C (centres undefined),"inconclusive: 12.6 µM [inhibitor, partial curve]"
26,Cc1ccc(NS(=O)(=O)c2cc3c(cc2NCCO)NC(=O)CC3)cc1C,inactive
27,O=C(OC[C@H]1O[C@@H](Oc2ccccc2COC(=O)C2(O)C=CCCC2O)[C@H](O)[C@@H](O)[C@@H]1O)c1ccccc1 (some centres undefined),"inconclusive: 12.6 µM [inhibitor, partial curve, poor fit]"
28,c1ccc2[nH]c(-c3ccc(NCc4ccc5c(c4)OCCO5)cc3)nc2c1,"inconclusive: 7.08 µM [inhibitor, partial curve, poor fit]"
29,C/C=C1\[C@H](OC2OC(COC3OC(CO)C(O)C(O)C3O)C(O)C(O)C2O)OC=C(C(=O)OC)[C@H]1CC(=O)OCCc1ccc(O)cc1 (some centres undefined),"inconclusive: 3.55 µM [inhibitor, partial curve, poor fit]"
